Results from PubChem BioAssay AID651820 (National Center for Advancing Translational Sciences (NCATS), 2012).
The campaign covered roughly 340,000 compounds. About 12,000 (3.5%) were called active. The inconclusive results got no clear call from the source; some entries with a clear call stand among them for comparison. Calls follow the shape of the dose curve; as a rule, active = well fitted inhibition curve with a large enough effect; inconclusive = small, poorly fitted or top-dose-only effect, or another doubt; inactive = no such curve, though single readings can be large or run the other way. No potency is given beside an inconclusive call; the fits are too rough.

Experiment: qHTS Assay for Inhibitors of Hepatitis C Virus (HCV)
Conditions: Huh7.5.1 HCVcc-Cre (HCVcc is cell-culture hepatitis C virus) infection, luciferase reporter, 44 h; activity change, negative = inhibition: at 41.8 µM (top of the series)
Procedure, shortened: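 Whole-lifecycle infectious HCVcc-Cre system; cells 1,000/well, compound then virus (~0.5 moi) added 4 h after plating, 44 h culture. Luciferase read 15 sec following 15 min substrate incubation, room temp.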
% is scaled to controls: 0 for no effect and ±100 for the full control effect; potency is read from the fitted curve at half-maximal effect; tags tell the direction and shape of the fitted curve.

| Structure (SMILES) | Potency | activity change, negative = inhibition |
| --- | --- | --- |
| CCc1ccc(NC(=O)C2CCCN(S(=O)(=O)c3ccc4c(c3)CC(C)N4C(C)=O)C2)cc1 (configuration not stated) | inconclusive [inhibitor, single point] |  |
| Cc1ccc(CNc2nc(-c3cccs3)nc3ccccc23)cc1 | inactive |  |
| COC(=O)[C@@H]1CC[C@@](C)(c2ccc(OC)cc2)C1(C)C | inactive |  |
| Cc1ccc(C(=O)CSc2nnc(-c3snnc3C)n2C2CC2)cc1 | inconclusive [inhibitor, single point] |  |
| O=C(Nc1ccc(Cl)c(Cl)c1)Nc1cc(C(=O)NC2CC2)ccc1Cl | inconclusive [inhibitor, single point] |  |
| CCC(=O)Oc1cccc(C(=O)Nc2ccc(-c3nnc(-c4ccco4)o3)cc2)c1 | inconclusive [inhibitor, single point] |  |
| Cc1ccc(Nc2nc(-c3cccnc3)cs2)cc1Cl | inconclusive [inhibitor, single point] |  |
| CC(C)(C)c1ccc(NC(=O)C2=CN3CCS(=O)(=O)N=C3C=C2)cc1 | inconclusive [inhibitor, partial curve] |  |
| O=S(=O)(c1ccc(Cl)cc1)c1cnc2ccccc2n1 | inconclusive [inhibitor, single point] |  |
| COc1ccc(-c2cc(C)no2)cc1S(=O)(=O)N1CCN(c2ccc([N+](=O)[O-])cc2)CC1 | active: 3.98 µM |  |
| C[C@@H]1CC=C[C@H]2[C@H]1C(=O)N(Cc1ccccc1)[C@H]2c1ccc(-c2ccoc2)cc1F | inconclusive [inhibitor, single point] |  |
| CCn1c(CNc2ccc(Cl)cc2)nnc1SCC#N | inactive |  |
| CCN(CC)S(=O)(=O)c1cc(NC(=O)CO/N=C(\N)c2ccccc2Cl)ccc1C | inconclusive [inhibitor, single point] |  |
| N#CCCn1cc(C(N)=O)c(-c2ccc3ccccc3c2)n1 | inactive |  |
| COc1ccc(C2=Nc3ccccc3C2(O)CCN2C(=O)c3ccccc3C2=O)cc1 (configuration not stated) | active: 0.891 µM |  |
| COC(=O)C1=CN(C2CC2)C=C(C(=O)OC)C1c1ccccc1OC | inconclusive [inhibitor, single point] |  |
| CCOC(=O)c1c(NC(=O)Cc2ccccc2)sc2c1CCN(C)C2 | inconclusive [inhibitor, partial curve] |  |
| CCCNC(=O)Nc1ccc2c(c1)nc(C)n2C | inactive |  |
| COc1ccc(S(=O)(=O)Nc2ccc(C)c(S(=O)(=O)N3CCOCC3)c2)cc1[N+](=O)[O-] | inconclusive [inhibitor, single point] |  |
| O=C(c1ccc(F)cc1)C1CCN(C(=O)N2CCOCC2)CC1 | inconclusive [inhibitor, full curve] |  |
| Cc1cccc(Nc2nnc(SCC(=O)Nc3ccccc3[N+](=O)[O-])s2)c1 | inconclusive [inhibitor, single point] |  |

| Structure (SMILES) | Potency | activity change, negative = inhibition |
| --- | --- | --- |
| CC(=O)N1CCN(C(=O)c2ccc3oc(CCCc4ccccc4)nc3c2)CC1 | inactive |  |
| Cc1ccc(CNC(=O)CSc2c3c(nc4ccc(Cl)cc24)CCCC3)o1 | inconclusive [inhibitor, partial curve, poor fit] |  |
| COc1ccc(-n2c(SCC(=O)Nc3cc(C)on3)nc3ccccc3c2=O)cc1Cl | inconclusive [inhibitor, single point] |  |
| C=CCCC(=O)Nc1nc(C)c(-c2csc(Nc3ccc(Cl)cc3)n2)s1 | active: 11.2 µM |  |
| COC(=O)C1=CO[C@@H](O[C@@H]2O[C@H](CO)[C@@H](O)[C@H](O)[C@H]2O)C2C1CC(O)O[C@H]2C (some centres not stated) | inactive |  |
| CCc1ccc(N(C(=O)CCC(=O)Nc2cc(C)on2)C(C(=O)NC2CCCC2)c2ccco2)cc1 (configuration not stated) | inconclusive [inhibitor, single point] |  |
| COc1ccc(CCNC(=O)c2cccc3c2C(=O)N(C2CCCCC2)C3)cc1OC | inconclusive [inhibitor, partial curve] |  |
| CCCNC(=O)C(Cc1ccc(I)cc1)NC(=O)c1ccc2ccccc2n1 (configuration not stated) | inconclusive [inhibitor, single point] |  |
| CCOC(=O)[C@H]1[C@H]2COc3cc(OC)ccc3[C@@H]2N2C(=O)c3ccc(F)cc3NC(=O)[C@@]12C | inconclusive [inhibitor, partial curve] |  |
| Cc1ccc(NC(=O)c2ncn(CCCNCCCc3ccccc3)n2)cc1C | inconclusive [inhibitor, partial curve, poor fit] |  |
| CC(CCc1ccco1)NC(=O)c1cccc2c1C(=O)N(C1CCCCC1)C2 (configuration not stated) | inconclusive [inhibitor, single point] |  |
| O=C(c1nn2c(C(F)(F)F)cc(-c3ccc(F)cc3)nc2c1Cl)N1CCOCC1 | inconclusive [inhibitor, partial curve] |  |
| CN(C(=O)c1cccs1)c1ccc(OCC(=O)N2CCC(C(N)=O)CC2)cc1 | inconclusive [inhibitor, partial curve] |  |
| CCn1cc(CN2CCC(C(=O)Nc3cccc(-c4cccc(Cl)c4)c3)CC2)cn1 | inconclusive [inhibitor, partial curve] |  |
| O=C(CCC1COc2ccccc2O1)NCc1ccccc1 (configuration not stated) | inactive |  |
| CCn1c2ccc(F)cc2c2nnc(SCCN3CCCCC3)nc21 | active: 14.1 µM |  |
| CCOC(=O)c1cc(C#N)c(Oc2cccc(C(F)(F)F)c2)nc1-c1ccccc1 | inconclusive [inhibitor, partial curve, poor fit] |  |
| CCOC(=O)C1=C(CSc2nc3c(cc2C#N)CN(C)CC3)OC(N)=C(C#N)C1c1ccc(Cl)cc1 (configuration not stated) | active: 12.6 µM |  |
| COc1ccccc1C1c2c(C)nn(-c3ccccc3)c2NC(=O)C1NC(=O)c1ccccc1 (configuration not stated) | inconclusive [inhibitor, partial curve, poor fit] |  |
| NC(=S)N/N=C\c1c(OCc2ccccc2Cl)ccc2ccccc12 | active: 7.94 µM |  |
| CC(C)(C)c1ccc(NC(=O)N2CCN(c3ccc([N+](=O)[O-])cn3)CC2)cc1 |  | inconclusive: -76.1% [inhibitor] |
